Results taken from PubChem BioAssay (NCATS).
This is one part of the list. The main result of the screen is listed elsewhere. These columns were measured beside it and carry no call. Most of these compounds were active or inconclusive in the main read-out, so they are no random draw. Potencies come from curve fits of mixed quality, noted in brackets.

Test: qHTS Assay for Lipid Storage Modulators (AID 1519)
Settings: Drosophila S3 cells, BODIPY lipid droplet/cell ratio, laser cytometry, cells loaded with oleic acid
Method in brief: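 Cells seeded at 5,000 per well were treated with compounds over a concentration series and loaded with oleic acid (400 uM, as added). Lipid droplet fluorescence (488 nm excitation, 500-530 nm channel) was read by laser-scanning cytometry and normalized to 20 uM Triacsin C.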

[1] = measured here: cell count channel max response
[2] = measured here: lipid (BODIPY) channel AC50
[3] = measured here: lipid channel max response
[4] = measured here: cell number channel AC50
Tags give direction and shape of the fitted curve.

| Structure (SMILES) | max response [1] [%] | AC50 [2] | max response [3] [%] | AC50 [4] |
| --- | --- | --- | --- | --- |
| COc1cccc(Cn2c(=O)c(C)nc3cnc(N4CCNCC4)nc32)c1 | 22.6 | 0.0501 µM [rising, full curve, poor fit] | 30.6 | – |
| COc1ccc(-c2c(O)c3c(OC)c4c(cc3oc2=O)OC(C)(C)CC4)cc1 | 27.3 | 22.4 µM [rising, partial curve, poor fit] | 38.3 | – |
| COC(=O)[C@@]1(C)CCC[C@@]2(C)c3ccc(O)c(C(C)C)c3CCC21 (stereo partly specified) | -11.3 | 35.5 µM [falling, single point] | -34.9 | – |
| Cc1noc(C)c1-c1nc(NCc2cccs2)c2ccccc2n1 | 9 | 1 µM [rising, full curve, poor fit] | 7.37 | – |
| COCCn1c(=O)c(-c2cc(F)cc(F)c2)nc2cnc(N3CCN(C)CC3)nc21 | 23.4 | 39.8 µM [rising, single point] | 33.5 | – |
| Cc1noc(C)c1-c1nc(N(C)C)c2ccccc2n1 | 5.78 | 0.178 µM [rising, full curve, poor fit] | 7.09 | – |
| Cc1cccc(CNc2nc(-c3cccnc3)nc3ccccc23)c1 | 5.2 | 0.0158 µM [rising, full curve] | 21.4 | – |
| CCOc1ccc2nc3cc(N)ccc3c(N)c2c1 | 9.67 | 6.31 µM [rising, partial curve, poor fit] | 33.2 | – |
| COc1ccccc1CNc1ccnc(-c2ccc(N(C)C)cc2)n1 | -32.9 | – | -64.3 | 39.8 µM [falling, single point] |
| COc1ccc(Oc2ncc3nc(-c4ccc(Cl)cc4)c(=O)n(CCC#N)c3n2)cc1 | 3.47 | 0.316 µM [rising, full curve, poor fit] | 7.65 | – |
| COc1ccc(-n2c(=O)c(C)nc3cnc(Nc4ccccc4)nc32)cc1 | 7.63 | 0.112 µM [rising, partial curve, poor fit] | 11.8 | – |
| CC1/C=C/C=C/C=C/C=C/C=C/C=C/C=C/C(OC2OC(C)C(O)C(N)C2O)CC2O[C@@](O)(CC(O)CC(O)C(O)CCC(O)CC(O)CC(=O)OC(C)[C@H](C)C1O)CC(O)C2C(=O)O (stereo partly specified) | 16 | 35.5 µM [rising, single point] | 42.5 | – |
| CN(C)c1ccc(-c2nc(N3CCNCC3)c3ccccc3n2)cc1 | 21.5 | 6.31 µM [rising, partial curve] | 31.5 | – |
| COC(=O)CC1[C@@]2(C)C[C@@]34OC5(C)OC6(CC[C@@]7(C)C(c8ccoc8)OC(=O)C(C(C)=O)C7[C@]6(O5)C(O)[C@@]3(O)C2O)[C@]14C (stereo partly specified) | 23.6 | 17.8 µM [rising, partial curve, poor fit] | 30 | – |
| COc1cc(OC)c(C(=O)CCCCN2CCC3(CC2)NC(=O)NC3=O)cc1NS(=O)(=O)c1ccc(C(F)(F)F)cc1 | 32.8 | – | 42.7 | 39.8 µM [rising, single point] |
| CS(=O)(=O)N1CCC[C@@]2(CCN(C(=O)Nc3cccc(C#N)c3)C2)C1 | 14.4 | 0.0112 µM [rising, full curve, poor fit] | 24.1 | – |
| COc1ccc(C(=O)N2CCC[C@@]3(CCN(Cc4ccccc4)C3)C2)cc1 | -0.776 | 0.00562 µM [rising, full curve, poor fit] | 7.1 | – |
| Cc1noc(C)c1-c1nccc(Nc2ccc(F)cc2)n1 | 6.92 | 3.16 µM [rising, partial curve] | 8.2 | – |
| Cc1cc(-c2ccccc2)nnc1NCCN1CCOCC1 | 23.5 | 28.2 µM [rising, partial curve, poor fit] | 47.4 | – |
| Cn1cccc1C(=O)N1CCC2(CC1)CN(c1cccc(-c3ccccc3)c1)C2 | -10.2 | 15.8 µM [falling, partial curve, poor fit] | -59.3 | – |
| O=C(Oc1ccccc1)N1CCC[C@@]2(CCN(c3ccccc3)C2)C1 | 23.5 | – | -17 | 0.282 µM [rising, partial curve, poor fit] |

| Structure (SMILES) | max response [1] [%] | AC50 [2] | max response [3] [%] | AC50 [4] |
| --- | --- | --- | --- | --- |
| O=C(c1cnccn1)N1CCC2(CC1)CN(c1cccc(-c3ccccc3)c1)C2 | 4.79 | 0.0178 µM [rising, full curve, poor fit] | 11.5 | – |
| CC(=O)OC1CC[C@@]2(C)C3CC[C@@]4(C)C(CC5O[C@@]6(CCC(C)CO6)C(C)C54)C3CC[C@@H]2C1 (stereo partly specified) | 20.1 | 39.8 µM [rising, single point] | 33.2 | – |
| O=C(Nc1cccc(F)c1)N1CCCC2(CCN(C(=O)c3cccc(F)c3)CC2)C1 | 17.6 | 0.158 µM [rising, full curve, poor fit] | 30.8 | – |
| Fc1ccc(Nc2ncnc3ccc(-c4ccoc4)cc23)cc1 | 28.6 | – | 28.5 | 3.16 µM [rising, full curve, poor fit] |
| N#CCCn1c(=O)c(-c2cc(F)cc(F)c2)nc2cnc(Nc3ccccc3)nc21 | 15.7 | 6.31 µM [rising, single point] | -5.22 | – |
| COc1ccc(-c2coc3cc(OC4OC(CO)C(O)C(O)C4O)cc(O)c3c2=O)cc1 (stereo unspecified) | 19.1 | 8.91 µM [rising, partial curve, poor fit] | 30.8 | – |
| N#Cc1cccc(-c2nc3cnc(N4CCNCC4)nc3n(C3CC3)c2=O)c1 | 7.48 | 0.00562 µM [rising, full curve, poor fit] | 5.55 | – |
| O=C(c1cccc(F)c1)N1CCC2(CC1)CN(C(c1ccccc1)c1ccccc1)C2 | 23 | 0.00708 µM [rising, full curve, poor fit] | 25.7 | – |
| O=C(O)c1ccccc1OP(=O)(O)O | 27.2 | 39.8 µM [rising, partial curve, poor fit] | 41.2 | – |
| CC(C)NC(=O)N1CCCC2(CCN(C(=O)c3cccn3C)CC2)C1 | 27.3 | 11.2 µM [rising, partial curve, poor fit] | 37.9 | – |
| O=C(Nc1cccc(F)c1)N1CCCC2(CCNCC2)C1 | 27.6 | 6.31 µM [rising, full curve, poor fit] | 36.1 | – |
| O=c1c(-c2cccc(F)c2)nc2cncnc2n1Cc1ccccc1Cl | 14.7 | 0.1 µM [rising, full curve, poor fit] | 18.3 | – |
| O=c1c(-c2ccc(F)c(F)c2)nc2cncnc2n1Cc1ccccc1Cl | 11.7 | 0.0251 µM [rising, full curve, poor fit] | 15.4 | – |
| Cc1cnc(CNc2ncncc2-c2ccoc2)cn1 | 26.1 | 31.6 µM [rising, partial curve, poor fit] | 31 | – |
| COc1ccc(Oc2ncc3nc(C)c(=O)n(CCc4ccccc4)c3n2)cc1 | 15.2 | 0.00891 µM [rising, full curve, poor fit] | 20.6 | – |
| COc1cccc(OC)c1C(=O)NC1C(=O)N2C1SC(C)(C)C2C(=O)O (stereo unspecified) | 16.7 | 39.8 µM [rising, single point] | 34.4 | – |
| O=c1cnc2cnc(Oc3ccccc3)nc2n1C1CC1 | 26.6 | 20 µM [rising, single point] | 31.7 | – |
| CN(C)C(=O)c1ccc(-c2nccc(-n3ccnc3)n2)cc1 | 19.1 | 0.708 µM [rising, full curve, poor fit] | 24.1 | – |
| CCNc1ncc2nc(-c3ccc(Cl)cc3)c(=O)n(-c3ccccc3)c2n1 | 14 | 0.0447 µM [rising, full curve, poor fit] | -8 | – |
| COc1ccc(-c2nc3cnc(OC)nc3n(Cc3cccc(OC)c3)c2=O)cc1 | 21.5 | 0.112 µM [rising, full curve] | 32.8 | – |
| COc1ccc(NC(=O)N2CCCC3(CCN(C(=O)c4ccc(OC)cc4)CC3)C2)cc1 | 24.1 | 7.94 µM [rising, full curve, poor fit] | 34.6 | – |
